Test results from PubChem BioAssay AID540317 (National Center for Advancing Translational Sciences (NCATS), 2011).
Among all 390,000 compounds or so, about 2,200 (0.56%) were called active. This list was built around the results that the source calls inconclusive (neither active nor inactive); the mix of calls is not that of the screen. The call rests on the fitted dose curve; in most records, active means well fitted inhibition curve with a large enough effect; inconclusive means small, poorly fitted or top-dose-only effect; inactive means no such curve, though single readings can be large or run the other way. Potencies of inconclusive entries are doubtful fits and often do not repeat.

Target: Chromobox protein homolog 1 (Homo sapiens) (UniProt P83916)
Chain of UniProt P83916 (P83916 whole entry, looked up): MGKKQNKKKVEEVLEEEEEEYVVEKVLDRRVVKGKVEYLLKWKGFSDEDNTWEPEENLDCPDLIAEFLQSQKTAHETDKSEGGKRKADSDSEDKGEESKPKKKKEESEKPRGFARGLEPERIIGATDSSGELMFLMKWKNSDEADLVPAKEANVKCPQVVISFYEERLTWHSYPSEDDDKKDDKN
Test: HTS for Inhibitors of HP1-beta Chromodomain Interactions with Methylated Histone Tails; further: nearly all actives have a fitted effect of over 70% in size
Conditions: AlphaScreen HP1-beta / biotin-H3K9me3 peptide binding; series mostly up to 114 µM
How it was run: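 AlphaScreen: HP1-beta (50 nM) preformed 30 min with biotin-H3(1-18)K9me3 peptide (50 nM) in PBS pH 7.4, 0.01% Tween-20. Compound added for 30 min at RT, then streptavidin donor/nickel chelate acceptor beads (10 ug/mL) for 30 min.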
Potency means the concentration at half of the fitted maximal effect; tags describe the fitted curve by direction and shape.

| SMILES | Potency |
| --- | --- |
| O=C(O)CN1C(=O)/C(=C\c2cc([N+](=O)[O-])ccc2OCc2ccccc2Cl)SC1=S | inconclusive: 50.1 µM [inhibitor, partial curve] |
| CCC(=O)Nc1ccc2nc3c(=O)[nH]c(=S)[nH]c3nc2c1 | inconclusive: 50.1 µM [inhibitor, partial curve] |
| O=C(NCC(c1ccco1)N1CCCCC1)c1ccc(S(=O)(=O)Nc2ccccc2)cc1 (stereo not given) | inactive |
| COc1cc2ccccc2cc1C(=O)Nc1ccc(N2CCN(C)CC2)cc1 | inactive |
| O=C(Nc1nc(-c2ccncc2)cs1)C1COc2ccccc2O1 (stereo not given) | inconclusive: 3.55 µM [inhibitor, full curve, poor fit] |
| CC(=O)c1ccc(Nc2c([N+](=O)[O-])ccc3nonc23)cc1 | inconclusive: 39.8 µM [inhibitor, partial curve, poor fit] |
| CC(CSc1n[nH]c(=S)s1)c1ccccc1 (stereo not given) | active: 50.1 µM |
| CCN(CC)c1ccc(/C=N/N2CCN(Cc3cccc4ccccc34)CC2)c(O)c1 | inconclusive: 12.6 µM [inhibitor, single point] |
| CCN(CC)c1cc(NC2CCCCC2)c2c3c(onc13)-c1ccccc1C2=O | active: 7.94 µM |
| C=CCOc1ccc(/C=C2\SC(=S)N(NS(=O)(=O)c3ccc(C)cc3)C2=O)cc1 | inconclusive: 31.6 µM [inhibitor, partial curve] |
| COc1ccc2c(c1)c(=O)oc1cc(OCC(=O)NC3CCCCC3)ccc12 | inconclusive: 50.1 µM [inhibitor, partial curve, poor fit] |
| Cc1cc2ccccc2n1CCNC(=O)c1cccs1 | inconclusive: 25.1 µM [inhibitor, partial curve, poor fit] |
| CN1CCN(c2ccccc2NC(=O)c2ccc(N3CCOCC3)c([N+](=O)[O-])c2)CC1 | inconclusive: 79.4 µM [inhibitor, single point] |
| CC1=CCC(C(=O)N/N=C/c2cccs2)C(c2ccc(F)cc2)C1 (stereo not given) | inactive |
| COc1ccc(NC(=O)Nc2ccc(O)c3ccccc23)cc1 | inconclusive: 8.91 µM [inhibitor, partial curve, poor fit] |
| Cc1oc(-c2cccc(Br)c2)nc1CN1CCC(C(=O)NCc2ccccc2)CC1 | inactive |
| CCn1ccnc1CN1CCc2c([nH]c3ccccc23)C1C1CCCCC1 (stereo not given) | inactive |
| O=C(N/N=C/c1ccc(Sc2nc3ccccc3[nH]2)o1)c1ccncc1 | inconclusive: 28.2 µM [inhibitor, single point] |
| COc1ccc(N2Cc3cccc(C(=O)N4CCN(C(=O)c5ccco5)CC4)c3C2=O)cc1 | inconclusive: 28.2 µM [inhibitor, full curve] |
| COc1ccc(-c2noc(CCCC(=O)N3CCOCC3)n2)cc1 | inconclusive: 89.1 µM [inhibitor, single point] |
| N#C/C(=N\Nc1ccc(Cl)cc1)C(=O)c1ccccc1 | inconclusive: 50.1 µM [inhibitor, partial curve] |
| O=C(CN1C(=O)C2CC=CCC2C1=O)Nc1ccccc1N1CCCC1 (stereo not given) | inactive |
| COc1ccc(CN(C(=O)Nc2cc(C)ccc2C)C2CCN(C(C)=O)CC2)cc1 | inactive |

| SMILES | Potency |
| --- | --- |
| COc1ccc(CNC(=O)c2cnc3sc4cc(OC)ccc4n3c2=O)cc1 | inactive |
| Cc1cc(C(=O)NNC(=S)Nc2ccccc2)nn1C | inactive |
| CN1c2ccccc2C(C)(C)[C@]12C=Cc1cc(O)ccc1O2 | inconclusive: 56.2 µM [inhibitor, partial curve, poor fit] |
| Cc1ccc(C)c(N(CC(=O)Nc2ccccc2C(=O)NCc2ccco2)S(=O)(=O)c2ccccc2)c1 | inactive |
| COc1ccc(NC(=O)C(=O)NNC(=O)C(C)Oc2ccc(Cl)cc2Cl)cc1 (stereo not given) | inactive |
| O=C(NCCOc1ccccc1)c1cc(S(=O)(=O)N2CCOCC2)ccc1F | inactive |
| COc1ccc(C(=O)OCCN2CCOCC2)cc1 | inactive |
| C=CCNC(=S)Nc1sc2c(c1C(=O)OCC)CCN(C(=O)OCC)C2 | inactive |
| COc1ccccc1C(=O)Nc1ccc(N2CCN(Cc3ccccc3)CC2)cc1 | inconclusive: 70.8 µM [inhibitor, single point] |
| O=C(C[C@H]1C[C@H](C(=O)N2CCCCC2)[C@@]2(CCc3ccccc3)c3[nH]c4cc(-c5ccco5)ccc4c3CCN2C1=O)NCCN1CCOCC1 | active: 20 µM |
| CC1CCC(=NNc2ccc(C(F)(F)F)cc2[N+](=O)[O-])CC1 (stereo not given) | inconclusive: 8.91 µM [inhibitor, full curve, poor fit] |
| Cc1ccc(NC(=O)CN(C)C(=O)c2ccc(Cl)c([N+](=O)[O-])c2)cc1 | inactive |
| Cc1cc(O)c(C(C)C)cc1N=Cc1ccc([N+](=O)[O-])cc1 | active: 50.1 µM |
| O=c1ccc(=O)n(-c2ccccc2)[nH]1 | inconclusive: 89.1 µM [inhibitor, single point] |
| CC1(C)CC(N2CCOCC2)=CC(=[N+]2CCOCC2)C1 | inconclusive: 89.1 µM [inhibitor, single point] |
| CCOC(=O)c1cccc(-n2c(C)cc(C=O)c2C)c1 | inconclusive: 70.8 µM [inhibitor, single point] |
| COc1cc(NC(=S)Nc2ccc(Br)cc2Cl)c(OC)cc1Cl | inconclusive: 35.5 µM [inhibitor, partial curve, poor fit] |
| CCc1cccc(OCCCCNCCCOC)c1 | inconclusive: 70.8 µM [inhibitor, single point] |
| Cc1cccc(C(=O)NC(=S)NNC(=O)c2cccs2)c1 | inconclusive: 22.4 µM [inhibitor, single point] |
| COc1ccc(CCNc2ccc(S(=O)(=O)N3CCN(C)CC3)cc2[N+](=O)[O-])cc1 | inconclusive: 39.8 µM [inhibitor, partial curve] |
| CN1CCN(S(=O)(=O)c2ccc(NC(=S)NC(=O)c3ccc(Cl)cc3)cc2)CC1 | inconclusive: 25.1 µM [inhibitor, partial curve, poor fit] |
| CCS(=O)(=O)N1Cc2ccccc2CC1C(=O)N1CCN(c2ccccc2)CC1 (stereo not given) | inconclusive: 39.8 µM [inhibitor, partial curve, poor fit] |
